The record followed here is the supplement of paper PMC12217912.

Some of the results follow. Sequences were assembled here from the parent chain. Inactive controls read about 0.05.

The chains are these.
B1: TEV protease; numbered along this chain (parent)
chain: MGESLFKGPRDYNPISSSICHLTNESDGHTTSLYGIGFGPFIITNKHLFRRNNGTLVVQSLHGVFKVKDTTTLQQHLVDGRDMIIIRMPKDFPPFPQKLKFREPQREERICLVTTNFQTKSMSSMVSDTSCTFPSGDGIFWKHWIQTKDGQCGSPLVSTRDGFIVGIHSASNFTNTNNYFTSVPKNFMELLTNQEAQQWVSGWRLNADSVLWGGHKVFMVKPEEPFQPVKEATQL

The variants in the experiment derive from B1. Kind of experiment: raw area under fraction-flipped curve 0-4 h after induction (AUC4h, not background-subtracted), DNA-recorder readout of cleavage of the substrate (dimensionless); higher = more cleavage of the substrate by the protease variant. The following applies: temperature: 34 °C; time window: 0-4 h after rhamnose induction. The procedure: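 In vivo DNA recorder in E. coli TOP10(DE3) ΔrhaA at 34 °C. Each TEVp single-site mutant (parent TEVp 0) is paired with a single-site variant of the 7-mer TEVs (canonical ENLYFQ|S). The substrate sits between flexible linkers in a Bxb1-sfGFP-TEVs-SsrA fusion, so cleavage stabilises Bxb1 and speeds flipping of a recombination array, read by NGS. The value is the raw area under the fraction-flipped curve over 0-4 h after rhamnose induction (AUC4h), with ≥20 reads per time point. It is not background-subtracted; inactive controls average about 0.047.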
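Note: Bxb1 expression induced with 0.2% (w/v) L-rhamnose at OD600 near 0.5, cultures sampled hourly, flipped fraction per protease–substrate barcode pair counted by paired-end Illumina sequencing.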

Take MGESLFKGPRDYNPISSSICHLTNESDGHTTSLYGIGFGPFIITNKHLFRRNNGTLVVQSLHGVFKVLDTTTLQQHLVDGRDMIIIRMPKDFPPFPQKLKFREPQREERICLVTTNFQTKSMSSMVSDTSCTFPSGDGIFWKHWIQTKDGQCGSPLVSTRDGFIVGIHSASNFTNTNNYFTSVPKNFMELLTNQEAQQWVSGWRLNADSVLWGGHKVFMVKPEEPFQPVKEATQL [K68L]: the “area with substrate ENLAFQS” value came out at 0.0636, the “area with substrate ENLCFQS” value came to 0.0743, the “area with substrate ENLDFQS” value was 0.0577 and the “area with substrate ENLEFQS” value is 0.0704. For the same variant, the “area with substrate ENLFFQS” value is 0.0793, the “area with substrate ENLHFQS” value amounted to 0.0752, the “area with substrate ENLIFQS” value was found to be 0.0795 and the “area with substrate ENLKFQS” value was 0.0686. Moreover, the “area with substrate ENLLFQS” value was 0.0763, the “area with substrate ENLMFQS” value is 0.0694, the “area with substrate ENLNFQS” value is 0.0607 and the “area with substrate ENLPFQS” value is 0.0441. Further, the “area with substrate ENLRFQS” value was determined as 0.0702, the “area with substrate ENLSFQS” value came to 0.0615, the “area with substrate ENLVFQS” value stood at 0.0623 and the “area with substrate ENLWFQS” value came to 0.0636.
MGESLFKGPRDYNPISSSICHLTNESDGHTTSLYGIGFGPFIITNKHLFRRNNGTLVVQSLHGVFKVQDTTTLQQHLVDGRDMIIIRMPKDFPPFPQKLKFREPQREERICLVTTNFQTKSMSSMVSDTSCTFPSGDGIFWKHWIQTKDGQCGSPLVSTRDGFIVGIHSASNFTNTNNYFTSVPKNFMELLTNQEAQQWVSGWRLNADSVLWGGHKVFMVKPEEPFQPVKEATQL [K68Q]: the “area with substrate ENLAFQS” value worked out at 0.0854, the “area with substrate ENLCFQS” value worked out at 0.0465, the “area with substrate ENLDFQS” value is 0.0711 and the “area with substrate ENLFFQS” value was found to be 0.0648. The “area with substrate ENLGFQS” value was found to be 0.0587, the “area with substrate ENLHFQS” value came to 0.0686, the “area with substrate ENLIFQS” value amounted to 0.0813 and the “area with substrate ENLKFQS” value was 0.0929. Besides, the “area with substrate ENLLFQS” value was 0.0669, the “area with substrate ENLMFQS” value came out at 0.0625, the “area with substrate ENLNFQS” value is 0.0704 and the “area with substrate ENLQFQS” value came to 0.061. The “area with substrate ENLRFQS” value is 0.0906 and the “area with substrate ENLWFQS” value turned out to be 0.0705.
Consider MGESLFKGPRDYNPISSSICHLTNESDGHTTSLYGIGFGPFIITNKHLFRRNNGTLVVQSLHGVFKVEDTTTLQQHLVDGRDMIIIRMPKDFPPFPQKLKFREPQREERICLVTTNFQTKSMSSMVSDTSCTFPSGDGIFWKHWIQTKDGQCGSPLVSTRDGFIVGIHSASNFTNTNNYFTSVPKNFMELLTNQEAQQWVSGWRLNADSVLWGGHKVFMVKPEEPFQPVKEATQL [K68E], for which the “area with substrate ENLAFQS” value is 0.0706, the “area with substrate ENLCFQS” value was determined as 0.1, the “area with substrate ENLDFQS” value turned out to be 0.0608 and the “area with substrate ENLEFQS” value was found to be 0.061. In addition, the “area with substrate ENLFFQS” value turned out to be 0.0853, the “area with substrate ENLGFQS” value is 0.0644, the “area with substrate ENLHFQS” value was 0.0614 and the “area with substrate ENLIFQS” value was 0.102. Moreover, the “area with substrate ENLKFQS” value was 0.0759, the “area with substrate ENLLFQS” value is 0.0777, the “area with substrate ENLMFQS” value is 0.0835 and the “area with substrate ENLNFQS” value came out at 0.0667. In addition, the “area with substrate ENLSFQS” value came to 0.0574, the “area with substrate ENLVFQS” value turned out to be 0.101 and the “area with substrate ENLWFQS” value was found to be 0.075.
Turning to MGESLFKGPRDYNPISSSICHLTNESDGHTTSLYGIGFGPFIITNKHLFRRNNGTLVVQSLHGVFKVKDTTTLWQHLVDGRDMIIIRMPKDFPPFPQKLKFREPQREERICLVTTNFQTKSMSSMVSDTSCTFPSGDGIFWKHWIQTKDGQCGSPLVSTRDGFIVGIHSASNFTNTNNYFTSVPKNFMELLTNQEAQQWVSGWRLNADSVLWGGHKVFMVKPEEPFQPVKEATQL [Q74W], the “area with substrate ENLAFQS” value amounted to 0.0655, the “area with substrate ENLCFQS” value is 0.0653, the “area with substrate ENLDFQS” value amounted to 0.0743 and the “area with substrate ENLFFQS” value worked out at 0.0713. The “area with substrate ENLGFQS” value came to 0.0722, the “area with substrate ENLHFQS” value is 0.0683, the “area with substrate ENLIFQS” value was determined as 0.128 and the “area with substrate ENLKFQS” value amounted to 0.0614. Moreover, the “area with substrate ENLMFQS” value worked out at 0.0753, the “area with substrate ENLPFQS” value came out at 0.0771, the “area with substrate ENLRFQS” value came to 0.0674 and the “area with substrate ENLSFQS” value is 0.0699. In addition, the “area with substrate ENLWFQS” value came out at 0.0424.
For MGESLFKGPRDYNPISSSICHLTNESDGHTTSLYGIGFGPFIITNKHLFRRNNGTLVVQSLHGVFKVKDTTTLFQHLVDGRDMIIIRMPKDFPPFPQKLKFREPQREERICLVTTNFQTKSMSSMVSDTSCTFPSGDGIFWKHWIQTKDGQCGSPLVSTRDGFIVGIHSASNFTNTNNYFTSVPKNFMELLTNQEAQQWVSGWRLNADSVLWGGHKVFMVKPEEPFQPVKEATQL [Q74F], the “area with substrate ENLAFQS” value amounted to 0.0639, the “area with substrate ENLCFQS” value turned out to be 0.0744, the “area with substrate ENLDFQS” value was 0.0662 and the “area with substrate ENLFFQS” value came to 0.0758. Moreover, the “area with substrate ENLGFQS” value came out at 0.0848, the “area with substrate ENLHFQS” value was 0.074, the “area with substrate ENLIFQS” value was determined as 0.079 and the “area with substrate ENLKFQS” value was determined as 0.0638. In addition, the “area with substrate ENLLFQS” value stood at 0.0658, the “area with substrate ENLNFQS” value was 0.0649, the “area with substrate ENLRFQS” value was found to be 0.0606 and the “area with substrate ENLVFQS” value turned out to be 0.0561. Moreover, the “area with substrate ENLWFQS” value is 0.0634.
With MGESLFKGPRDYNPISSSICHLTNESDGHTTSLYGIGFGPFIITNKHLFRRNNGTLVVQSLHGVFKVKDTTTLEQHLVDGRDMIIIRMPKDFPPFPQKLKFREPQREERICLVTTNFQTKSMSSMVSDTSCTFPSGDGIFWKHWIQTKDGQCGSPLVSTRDGFIVGIHSASNFTNTNNYFTSVPKNFMELLTNQEAQQWVSGWRLNADSVLWGGHKVFMVKPEEPFQPVKEATQL [Q74E], the “area with substrate ENLAFQS” value worked out at 0.0696, the “area with substrate ENLCFQS” value was determined as 0.0593, the “area with substrate ENLDFQS” value came out at 0.0492 and the “area with substrate ENLFFQS” value is 0.0636. Also, the “area with substrate ENLGFQS” value is 0.0869, the “area with substrate ENLHFQS” value worked out at 0.0818, the “area with substrate ENLKFQS” value is 0.0834 and the “area with substrate ENLMFQS” value is 0.102. In addition, the “area with substrate ENLNFQS” value was 0.0607, the “area with substrate ENLPFQS” value is 0.0702, the “area with substrate ENLQFQS” value amounted to 0.0703 and the “area with substrate ENLRFQS” value is 0.0651. Moreover, the “area with substrate ENLSFQS” value was found to be 0.0568.
On to MGESLFKGPRDYNPISSSICHLTNESDGHTTSLYGIGFGPFIITNKHLFRRNNGTLVVQSLHGVFKVKDTTTLQQALVDGRDMIIIRMPKDFPPFPQKLKFREPQREERICLVTTNFQTKSMSSMVSDTSCTFPSGDGIFWKHWIQTKDGQCGSPLVSTRDGFIVGIHSASNFTNTNNYFTSVPKNFMELLTNQEAQQWVSGWRLNADSVLWGGHKVFMVKPEEPFQPVKEATQL [H76A], for which the “area with substrate ENLAFQS” value was 0.0203, the “area with substrate ENLDFQS” value amounted to 0.0715, the “area with substrate ENLFFQS” value came out at 0.0801 and the “area with substrate ENLGFQS” value worked out at 0.089. The “area with substrate ENLIFQS” value came to 0.0619, the “area with substrate ENLKFQS” value is 0.078, the “area with substrate ENLLFQS” value turned out to be 0.0662 and the “area with substrate ENLMFQS” value came to 0.0734. In addition, the “area with substrate ENLNFQS” value was determined as 0.0705, the “area with substrate ENLQFQS” value came to 0.0797, the “area with substrate ENLRFQS” value turned out to be 0.0778 and the “area with substrate ENLSFQS” value amounted to 0.071. Further, the “area with substrate ENLVFQS” value amounted to 0.079.
For the variant MGESLFKGPRDYNPISSSICHLTNESDGHTTSLYGIGFGPFIITNKHLFRRNNGTLVVQSLHGVFKVKDTTTLQQILVDGRDMIIIRMPKDFPPFPQKLKFREPQREERICLVTTNFQTKSMSSMVSDTSCTFPSGDGIFWKHWIQTKDGQCGSPLVSTRDGFIVGIHSASNFTNTNNYFTSVPKNFMELLTNQEAQQWVSGWRLNADSVLWGGHKVFMVKPEEPFQPVKEATQL [H76I], the “area with substrate ENLAFQS” value is 0.0651, the “area with substrate ENLDFQS” value was 0.0687, the “area with substrate ENLFFQS” value came out at 0.0716 and the “area with substrate ENLGFQS” value was found to be 0.0594. Moreover, the “area with substrate ENLKFQS” value amounted to 0.0682, the “area with substrate ENLMFQS” value amounted to 0.0642, the “area with substrate ENLNFQS” value is 0.069 and the “area with substrate ENLQFQS” value was found to be 0.069. For the same variant, the “area with substrate ENLSFQS” value came out at 0.0557.
As for MGESLFKGPRDYNPISSSICHLTNESDGHTTSLYGIGFGPFIITNKHLFRRNNGTLVVQSDHGVFKVKDTTTLQQHLVDGRDMIIIRMPKDFPPFPQKLKFREPQREERICLVTTNFQTKSMSSMVSDTSCTFPSGDGIFWKHWIQTKDGQCGSPLVSTRDGFIVGIHSASNFTNTNNYFTSVPKNFMELLTNQEAQQWVSGWRLNADSVLWGGHKVFMVKPEEPFQPVKEATQL [L61D], the “area with substrate ENLAFQS” value worked out at 0.0727, the “area with substrate ENLDFQS” value was 0.0592, the “area with substrate ENLEFQS” value came out at 0.0466 and the “area with substrate ENLFFQS” value worked out at 0.084. The “area with substrate ENLGFQS” value amounted to 0.0621, the “area with substrate ENLHFQS” value was 0.074, the “area with substrate ENLKFQS” value was 0.078 and the “area with substrate ENLLFQS” value worked out at 0.0523. Moreover, the “area with substrate ENLMFQS” value is 0.0766, the “area with substrate ENLPFQS” value turned out to be 0.0477, the “area with substrate ENLQFQS” value is 0.0652 and the “area with substrate ENLRFQS” value stood at 0.0718. Besides, the “area with substrate ENLSFQS” value came to 0.0473 and the “area with substrate ENLWFQS” value was 0.0847.
